Whole data set: some 110,000 compounds, median “z-score” near -0.1, cut for the highest 2% near 2. Some of the results follow. Activity calls are given as the source filed them.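 Rule for the calls: active = z-score in the third read window above 3 or below -3; inactive = the rest.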

The target of this test is Metabotropic glutamate receptor 8 (Rattus norvegicus) (UniProt P70579). Put plainly: rat mGluR8 modulators via GIRK flux, primary screen, cell-based, thallium flux, HTS (AID 488969). Conditions: HEK293 rat mGluR8, GIRK (G protein-gated inwardly rectifying potassium channel) thallium flux, FluoZin2; at 10 µM; stronger effect = higher value; submaximal glutamate (EC20) added with thallium.
Chain of UniProt P70579 (P70579 whole entry, looked up): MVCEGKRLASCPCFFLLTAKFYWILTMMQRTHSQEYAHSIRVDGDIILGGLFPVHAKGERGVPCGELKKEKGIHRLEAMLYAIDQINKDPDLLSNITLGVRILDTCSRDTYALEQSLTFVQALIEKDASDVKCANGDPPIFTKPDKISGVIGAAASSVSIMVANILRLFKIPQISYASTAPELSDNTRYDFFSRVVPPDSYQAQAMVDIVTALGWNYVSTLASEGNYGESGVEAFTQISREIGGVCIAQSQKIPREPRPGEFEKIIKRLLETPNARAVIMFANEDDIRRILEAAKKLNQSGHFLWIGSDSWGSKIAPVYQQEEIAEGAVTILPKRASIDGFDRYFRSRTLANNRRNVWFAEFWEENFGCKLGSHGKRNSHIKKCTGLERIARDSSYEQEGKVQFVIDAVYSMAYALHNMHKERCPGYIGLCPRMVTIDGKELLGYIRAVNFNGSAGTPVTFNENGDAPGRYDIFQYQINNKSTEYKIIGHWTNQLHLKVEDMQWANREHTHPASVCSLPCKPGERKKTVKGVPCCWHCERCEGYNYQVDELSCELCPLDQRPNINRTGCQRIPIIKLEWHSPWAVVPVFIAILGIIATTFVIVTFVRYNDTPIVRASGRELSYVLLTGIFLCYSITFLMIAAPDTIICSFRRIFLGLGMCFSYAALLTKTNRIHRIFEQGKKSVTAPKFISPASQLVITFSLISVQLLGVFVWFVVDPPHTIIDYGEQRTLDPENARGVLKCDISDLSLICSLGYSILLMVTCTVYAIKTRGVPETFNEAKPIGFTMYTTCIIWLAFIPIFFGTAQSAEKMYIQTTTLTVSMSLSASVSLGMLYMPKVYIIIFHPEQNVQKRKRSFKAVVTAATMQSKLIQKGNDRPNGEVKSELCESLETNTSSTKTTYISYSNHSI
The compound `COc1ccc(CNC(=O)CN(C(=O)c2ccc(CN3CCOCC3)o2)C2CCCC2)cc1` had a z-score of -0.1.

In turn, `Cc1cccc(OCC(=O)N(Cc2cccs2)C2CCS(=O)(=O)C2)c1` (stereo unspecified) returned a z-score of -0.492.

In turn, `O=C(c1ccc(COCC(F)(F)F)o1)N1CCCCCC1` gave a z-score of -0.0813.

As for `CCOC(=O)N1CCN(C(=O)c2ccc3c(=O)n(CCC4=CCCCC4)c(=S)[nH]c3c2)CC1`, the z-score was 0.221.

Consider `CCn1c(SCc2ccc(Cl)cc2)nnc1-c1ccccc1`, for which the z-score was active: 3.4.

As to `CCOC(=O)c1c(NC(=O)CSc2ncnc3ccccc23)sc(C)c1C`, the z-score is -0.246.

In turn, `O=C(Cc1ccccc1)Nc1nonc1NC(=O)c1ccccc1` returned a z-score of -0.763.

In turn, `CCc1cccc(C)c1NC(=O)c1ccc(CN2CCc3ccccc3C2)cc1` showed a z-score of 0.221.

`Cc1ccnc(N/C=C(/NC(=O)c2ccccc2)C(=O)N/N=C\c2ccc(F)cc2)n1` displayed a z-score of -0.188.

`CN(C)c1ccc(/C=[N+](\[O-])C2N(c3ccccc3)C(=S)SC2(C)C)cc1` (stereo unspecified) returned a z-score of 0.11.

Regarding `CC(C)(C)c1nc(S(=O)(=O)c2ccc(Cl)cc2)c(N2CCOCC2)o1`, the z-score is -0.0494.

The compound `CCn1cnc2sc(C(=O)O)c(C)c2c1=O` displayed a z-score of -0.218.

Compound `O=C(Cn1cc2c(n1)CCCCC2)N1CCc2ccccc21` came in with a z-score of 0.712.

In the case of `NC(=O)C1CCN(C(=O)c2ccc(-c3ccccc3)cc2)CC1`, the z-score was 0.99.

The compound `O=C1CC(c2ccco2)Cc2nc(N3CCc4ccccc4C3)ncc21` (stereo unspecified) showed a z-score of -0.109.

Compound `COc1ccc(C(=O)C(c2ccccc2)N2CCOCC2)cc1` (stereo unspecified) yielded a z-score of 2.44.

As to `c1ccc(-c2nc(-c3cccs3)[nH]c2-c2ccccc2)cc1`, the z-score is -0.425.

Regarding `CCOc1ccc(NC(=O)CN2CCN(CC(=O)Nc3ccc(F)cc3)CC2)cc1`, the z-score is -0.0589.

With `COCc1c(C(=O)N2CCN(c3ccc(C(F)(F)F)cn3)CC2)oc2ccccc12`, the z-score was -0.0186.

For the compound `CC1CCC(NC(=O)CN2C(=O)COc3ccc(S(=O)(=O)N4CCCC4)cc32)CC1` (stereo unspecified), the z-score is -0.0735.

For `COc1ccc2[nH]c(=O)c(C(c3nnnn3C3CCCC3)N(C)C3CCCCC3)cc2c1` (stereo unspecified), the z-score is -0.943.

`Cc1ccc(CNC(=O)CCNS(=O)(=O)c2ccc3c(c2)c(=O)n(C)c(=O)n3C)cc1`: the z-score was -0.0284.

Turning to `O=C(NC(=S)NCCc1ccccc1)c1ccco1`, the z-score is active: 13.

In turn, `Cc1ccc(NS(=O)(=O)c2cccc(C(=O)N/N=C/c3c(C)nn(-c4ccccc4)c3N3CCCC3)c2)c(C)c1` displayed a z-score of -0.38.

Turning to `Cc1ccc(SC(C)C(=O)Nc2ccncc2)cc1` (stereo unspecified), the z-score is -0.115.

As for `CN(Cc1ccccc1)C(=O)[C@H]1CCC(=O)N1Cc1ccco1`, the z-score was 0.3.

As for `CCCCCn1c(S(=O)(=O)O)nc2ccccc21`, the z-score is -0.124.

Take `COc1cccc(/C=N\NC(=O)C2C(=O)NCC2c2ccccc2)c1O` (stereo unspecified): the z-score is -0.383.

`Cc1ccc(C2CC(=O)N3CN(c4ccc(Br)cc4)CSC3=C2C#N)o1` (stereo unspecified) came in with a z-score of -0.821.

`CCc1[nH]nc2c1C(c1ccc(Br)s1)C(C#N)=C(N)O2` (stereo unspecified) registered a z-score of -1.71.

In turn, `CCC(Sc1nc2ccc(N)cc2s1)C(=O)Nc1nccs1` (stereo unspecified) showed a z-score of -0.186.

In turn, `Brc1ccccc1C1CC(c2ccccc2)=Nc2ccccc2N1` (stereo unspecified) showed a z-score of -0.443.

As for `CCOC(=O)N1CCC(NC(=O)CCc2cn(C)c3ccccc23)CC1`, the z-score came out at 0.837.

`O=C(N/N=C/c1ccccc1OCC(=O)N1CCCC1)C(=O)Nc1ccccc1F` returned a z-score of -0.172.

Compound `COc1ccc2c(Cl)c(-c3nnc(SCC(=O)c4ccccc4)n3C)sc2c1` returned a z-score of -0.127.

As to `C=CCn1c(N)c(C(=O)NCc2cccnc2)sc1=S`, the z-score was found to be 0.731.

`Cc1cccc(C2NC(c3cccc(C)c3)C([N+](=O)[O-])C(C)(C)C2[N+](=O)[O-])c1` (stereo unspecified) showed a z-score of 1.01.

In turn, `CCOC(=O)C1=C(C)NC(=S)N(C(C)=O)C1c1ccc(Cl)cc1` (stereo unspecified) yielded a z-score of 1.27.

`Cc1cc(NC(=O)c2sccc2C)n(-c2cccc(Cl)c2)n1` returned a z-score of -0.756.

For `O=C1CC(c2ccccc2)Cc2nc(NCc3ccco3)ncc21` (stereo unspecified), the z-score is -0.203.

The compound `Cc1cc(C)n(CC(O)COCc2ccccc2)n1` (stereo unspecified) showed a z-score of 0.413.

Consider `CN1C(C)(C)CC(=NOC(=O)c2ccccc2)CC1(C)C`, for which the z-score amounted to 0.114.

As to `O=C(CC1Oc2ccccc2NC1=O)NC1CCCC1` (stereo unspecified), the z-score is -0.0976.

Compound `C=CCc1c(OC)ccc2ccc(=O)oc12` had a z-score of -0.376.

Compound `Cc1ccc2[nH]c3c(N4CCCCCC4)ncnc3c2c1` returned a z-score of -1.1.

In turn, `O=C(N/N=C\c1ccc(-c2ccccc2[N+](=O)[O-])o1)C1COc2cc3ccccc3cc2O1` (stereo unspecified) showed a z-score of -0.33.

Compound `CCOCCCNC(=O)C1CCN(S(=O)(=O)c2c(C)noc2/C=C\c2ccc(OC)cc2)CC1` came in with a z-score of -0.684.

`COc1ccc(NS(=O)(=O)c2ccc3c(c2)oc(=O)n3C)c(OC)c1` came in with a z-score of 0.162.

In turn, `Cc1ccc(S(=O)(=O)N2CCN(C(=O)c3nn(C(C)C)c(=O)c4ccccc34)CC2)cc1C` showed a z-score of -0.273.

With `CCc1cccc(C)c1NC(=O)CO/N=C(\C)c1cc2ccccc2o1`, the z-score was -0.474.

The compound `Fc1ccc(-c2cnc(-c3cccs3)o2)cc1` showed a z-score of 0.0736.

Compound `CCc1cc2c3c(c1)C(C)CC(C)(C)N3C(=O)C2=O` (stereo unspecified) showed a z-score of -1.1.

For `CC(NC(=O)CN(C)Cc1nc2ccccc2c(=O)[nH]1)c1ccccc1` (stereo unspecified), the z-score is -0.0151.

Compound `O=C(NC1CCCCC1)C(c1ccccc1)N(Cc1ccc2c(c1)OCO2)C(=O)c1cnsn1` (stereo unspecified) registered a z-score of 2.16.

In turn, `COC(=O)C1=C(C)N=c2s/c(=C/c3cccs3)c(=O)n2C1c1cccs1` (stereo unspecified) gave a z-score of 0.251.

Regarding `Cc1sc(NC(=O)C2CC=CCC2C(=O)O)c(C(=O)OC(C)C)c1C` (stereo unspecified), the z-score is -0.176.

`O=C(Oc1cccc(NC(=O)c2cccs2)c1)c1cccc(S(=O)(=O)N2CCCC2)c1` gave a z-score of -0.3.

Take `CCc1nnc(NC(=O)Cc2ccc(OC)cc2)s1`: the z-score was found to be 0.105.

Regarding `COc1cnn(-c2ccccc2)c(=O)c1SCc1ccc(Cl)cc1Cl`, the z-score was 0.0847.

For `Cc1ccc(-c2nc3ccccc3o2)cc1NC(=S)NC(=O)c1cccs1`, the z-score turned out to be 1.65.

For the compound `N#Cc1nc(N)nc(N(c2ccccc2)c2ccccc2)n1`, the z-score is -0.535.

In the case of `COc1ccc(-n2nc3cc(C)c(N)c(Br)c3n2)cc1`, the z-score is -0.24.

With `Cn1c(CS(=O)Cc2c(Cl)cccc2Cl)nnc1SCc1ccc(Cl)cc1` (stereo unspecified), the z-score is -0.0974.

`CCc1ccc(NC(=O)C(C)Oc2nnc(-c3cccs3)c(-c3cccs3)n2)cc1` (stereo unspecified) came in with a z-score of -0.246.

Compound `CCN1CCN(C(=O)C2(NC(=O)Nc3cccc(F)c3)CCCCC2)CC1` yielded a z-score of 0.174.

For `Cc1ccc(NC(=O)Cn2nnc(C(=O)Nc3ccc(C)c(C)c3)c2N)cc1`, the z-score was determined as 0.457.

As to `CCOc1ccc(NS(=O)(=O)c2ccc3[nH]cc(C(=O)N(CC)CC)c(=O)c3c2)cc1`, the z-score was found to be 0.0393.

`COc1ccc(Nc2ncc3c(n2)CC(c2ccc(C)cc2)CC3=O)cc1` (stereo unspecified) displayed a z-score of -0.0742.

`N=C1C(c2nc(-c3ccc(F)cc3)cs2)=C(O)CN1Cc1ccc(Cl)cc1` yielded a z-score of 0.268.

The compound `CCc1ccc(OCCCOc2ccc(C=O)cc2)cc1` gave a z-score of 0.232.

`Cc1cccc(OCC(=O)O/N=C(\N)c2ccc(Cl)cc2)c1`: the z-score came out at 0.515.

Take `Fc1c(F)c(C(F)(F)F)c(F)c(F)c1N/N=C\c1cccs1`: the z-score is 0.316.

For `Cc1nc2ccc(F)cc2cc1C(=O)NCc1ccco1`, the z-score is -0.0284.

`CCSc1nnc(NC(=O)CSc2nc3c(cc2C#N)CCCC3)s1` came in with a z-score of -0.18.

`CS(=O)(=O)c1ccc(N2CCN(C3CC(=O)NC3=O)CC2)cc1` (stereo unspecified) displayed a z-score of 0.162.

The compound `O=S(=O)(c1cc(Cl)ccc1Cl)N1CC2CCCN2c2ccc(C(F)(F)F)cc21` (stereo unspecified) displayed a z-score of -1.18.

Compound `COc1ccccc1OC(=O)c1ccc2nsnc2c1` registered a z-score of -0.439.

`Cn1c(CCNC(=O)c2ccc(Cl)cc2)n[nH]c1=S` came in with a z-score of -0.159.

`COc1ccc(/C=N/NC(=O)c2[nH]ncc2Br)c(OC)c1` came in with a z-score of -0.26.

In turn, `Cc1cnc(NC(=O)c2cc3c(s2)CCCC3)s1` yielded a z-score of 0.0107.

`CN1C(=O)CCC1(O)c1ccccc1` (stereo unspecified): the z-score was -0.249.

Consider `Cc1ccc(S(=O)(=O)N2C(=O)CCC2C(=O)Nn2cnnc2)cc1` (stereo unspecified), for which the z-score is -0.0708.

The compound `CC(C)(C)C1CCc2onc(C(=O)NCc3ccc(F)cc3)c2C1` (stereo unspecified) came in with a z-score of -0.198.

In turn, `O=C(CNC(=O)Cc1ccccc1)NCC(=O)OCc1ccc(C(=O)c2ccccc2)cc1` registered a z-score of -0.175.

Compound `c1coc(-c2nc3nc4ccccc4nc3n2CC2CCCO2)c1` (stereo unspecified) gave a z-score of -0.0828.

As to `Cc1ccc(-n2ncc3c(=O)n(CC(=O)N4CCN(c5ccccc5F)CC4)cnc32)cc1C`, the z-score was -1.24.

As to `CCOC(=O)c1nn(-c2cccc(C)c2)c2nc(-c3ccccc3)c(C#N)c(=O)n12`, the z-score was -0.167.

In turn, `CCN(CC)S(=O)(=O)c1cccc(C(=O)NN2Cc3ccccc3C2=N)c1` gave a z-score of -0.144.

With `CCOC(=O)C1=C(C)S/C(=C\N(C)C)C1=O`, the z-score is -0.721.

The compound `O=C(CCC(=O)c1cccs1)Nc1ccccc1F` came in with a z-score of 0.0892.

In turn, `CC1(C)Cc2ccccc2-c2nnnn21` had a z-score of 0.437.

With `O=C(COc1ccccc1Cl)NCc1ccco1`, the z-score was 0.603.

Regarding `Nc1nc(NCc2c(F)cccc2Cl)nn1-c1ccccc1`, the z-score was -0.142.

Take `O=C(c1ccco1)N1CCN(C(=O)c2[nH]ncc2[N+](=O)[O-])CC1`: the z-score was -0.0249.

`O=C(CSc1nnc(CNC(=O)c2ccccc2F)o1)c1ccccc1` gave a z-score of 1.07.

With `Cc1ccccc1NC(=O)c1cn(-c2ccccc2)nc1-c1ccccc1`, the z-score amounted to 0.316.

Consider `CC(NC(=O)CSc1nnc(-c2cccc(S(=O)(=O)N3CCCCC3)c2)o1)C12CC3CC(CC(C3)C1)C2` (stereo unspecified), for which the z-score was -0.897.

Take `O=C(NCCCNc1ccc(C(F)(F)F)cc1[N+](=O)[O-])c1cc(F)c(F)cc1Cl`: the z-score is -0.349.

`COc1cc(/C=N/O)cc(Br)c1OC` returned a z-score of -0.12.

The compound `CN1C=CC2=C(C#N)C(N)C(C#N)(C#N)C(c3ccccc3)C2C1` (stereo unspecified) had a z-score of -2.28.

As for `N#C/C(=C/c1ccc(OCc2ccccc2)cc1)C(=O)NC1CCCCC1`, the z-score turned out to be 0.0182.

Compound `CCCNC(=O)Cn1cnc([N+](=O)[O-])n1` displayed a z-score of 0.245.

In turn, `Cc1nnc(NC(=O)c2ccccc2F)s1` showed a z-score of 0.0729.

`Nc1nonc1C(=Nc1ccc(Br)cc1)NO` came in with a z-score of 0.127.

`COC(=O)Cc1c(C)c2c(O)cc(C)cc2oc1=O` yielded a z-score of -0.16.

`O=C(Cc1n[nH]c(=O)[nH]c1=O)N/N=C/c1cccc(O)c1` yielded a z-score of -0.575.

For `CC(C)NC(=O)CC(c1ccccc1)c1cc(Br)ccc1O` (stereo unspecified), the z-score is -0.268.

On to `O=S(=O)(/N=C(/Nc1ccccn1)c1ccccc1)c1ccc(Cl)cc1`, for which the z-score was 0.031.

In turn, `Cc1cc(NC(=O)CN2C(=O)NC3(CCCCC3C)C2=O)no1` (stereo unspecified) had a z-score of 0.169.

`Cc1ccc(C)n1-c1ccc(C(=O)O)cc1` registered a z-score of -1.12.

Turning to `CC(C)(C)C1CCC(=NNc2ccc(S(N)(=O)=O)cc2[N+](=O)[O-])CC1` (stereo unspecified), the z-score was -0.138.
